This data set concerns T1 and C3H/10T1/2 cells. Kind of data set: toxicity to cells in T1 / C3H/10T1/2 co-cultures. As to conditions: at all concentrations (0.5, 1.0, 5.0 or 10.0 μM).

As to `Cc1ccc2cc3c(ccc4ccccc43)c3c2c1CC3` [20-methylcholanthrene], the “cells remaining on the plates” value (stock in tetrahydrofuran) was “very few cells remained on the plates”. Also, the toxicity to cells result (may be due to peroxides contaminating tetrahydrofuran) is “very toxic to cells”.
